Results as given in patent publication US12435061B2 (priority 2020, dated 2025).

Tests used:
[1] = system: Salmonella typhimurium TA1535, TA1537, TA98, TA100; experiment: Bacterial mutation assay (reverse mutation), Salmonella typhimurium
[2] = system: Escherichia coli WP2 uvrA; experiment: Bacterial mutation assay (reverse mutation), Escherichia coli; details: Escherichia coli, absence or presence of S9 metabolism
minipig = experiment: Dermal irritation (modified Draize test) and clinical observations, topical KM-001 ointment in minipig
[3] = PK/toxicokinetics of KM-001 via IV and topical routes in minipig
[4] = system: nHEK cells transfected with TRPV3 mutant; experiment: Keratinocyte Involucrin mRNA expression in TRPV3 mutant transfected cells (QPCR); assay type: cell-based, human; details: 1 μM KM-001, nHEK transfected with TRPV3 mutant, normalized to HPRT
Experimental: Involucrin expression levels were measured by QPCR using qPCRBIO Fast qPCR SyGreen Blue Mix, Hi-ROX (cat. #PB20.16-20). […] Involucrin expression levels were normalized to HPRT expression levels in each sample.

Gottingen minipigs = experiment: 7-day preliminary dermal tolerance/toxicity study in minipigs; details: KM-001 Ointment 0.1, 0.3, 1% w/w, twice daily dermal, 7 days, minipigs

Q: For `O=C(c1ccc(F)cn1)N1CCC(c2ccc(-c3ccccc3C3CC3)cc2CO)C1` (stereo not drawn) [KM-001], which “toxicity or increases in revertant numbers, toxicity test” value ([1]; 50.0-5000 μg/plate, all five tester strains (incl. E. coli WP2 uvrA), absence or presence of S9) is on record?
A: The value was “No toxicity or relevant increases in revertant numbers were observed”.

Q: What about the “toxicity or increases in revertant numbers, Main Assay” value ([1]; 62.5-1000 μg/plate, plate incorporation, all five tester strains (incl. E. coli WP2 uvrA), absence or presence of S9) of the same compound?
A: The value was “No toxicity or relevant increases in revertant numbers were observed”.

Q: What about the “induction of reverse mutation” value ([1]; Salmonella typhimurium, absence or presence of S9 metabolism) of the same compound?
A: The value was “does not induce reverse mutation”.

Q: What about the “induction of reverse mutation” value [2] of the same compound?
A: The value was “does not induce reverse mutation”.

Q: What about the signs of irritation (minipig; KM-001 ointments at all strengths, topical) of the same compound?
A: The signs of irritation was “None of the pigs showed signs of irritation”.

Q: And the abnormal clinical signs (minipig; topical and IV KM-001, study period)?
A: The abnormal clinical signs was “No abnormal clinical signs were observed”.

Q: What about the concentration at 24 h ([3]; male, minipig, plasma, iv, 0.5 mg/kg) of the same compound?
A: Its concentration at 24 h is under 0.3 ng/mL.

Q: What about the concentration at 24 h ([3]; male, minipig, plasma, iv, 8 mg/kg) of the same compound?
A: The concentration at 24 h was 61.6 ng/mL.

Q: And the Tmax ([3]; male, minipig, plasma, iv, 8 mg/kg, Apparent maximum concentration time (tmax), IV bolus, 0.5 and 8 mg/kg)?
A: Its Tmax is 5 min.

Q: And the “KM-001 in plasma after topical application (skin to systemic exposure)” value ([3]; topically treated pig, ointment 0.1-1%)?
A: Its value is “no skin to systemic exposure observed”.

Q: What about the “Involucrin mRNA expression” value [4] of the same compound?
A: Its value is “did not affect involucrin expression”.

Q: What about the “Clinical Chemistry” value (Gottingen minipigs) of the same compound?
A: The value was “No changes were recorded”.

Q: And the Coagulation (Gottingen minipigs)?
A: The Coagulation was “No changes were recorded”.

Q: And the Haematology (Gottingen minipigs)?
A: The Haematology was “No relevant changes were observed”.

Q: What about the Urinalyses (Gottingen minipigs) of the same compound?
A: Its Urinalyses is “No changes were recorded”.
